Measurements published in the supplement of paper PMC4967469.

What was measured:
Experiment in all cases: Viability of human cancer cell lines after 72 h of drug (GDSC screen)
[1] = compound: CC(C)=CC[C@@H](O)C1=CC(=O)c2c(O)ccc(O)c2C1=O [Shikonin]; conditions: top dose 16 µM; top dose inferred
Method: (§1)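 Human cancer cell lines in 384-well plates, medium with 10% serum, drug for 72 h over a 256-fold dose range (nine 2-fold or five 4-fold steps up to the top dose). Adherent lines were fixed and stained with the nucleic acid dye Syto60, suspension lines read with resazurin; signal relative to control wells, capped at 0 and 100%. One two-parameter sigmoid per drug and line, fitted in a mixed model over all curves with the slope shared within a line.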

[2] = compound: CCNc1cc(NC2CCC(O)CC2)nc(Nc2ccc3c(ccn3Cc3ccccc3)c2)n1 [CGP-082996 (CINK4)]; conditions: top dose 5.12 µM; top dose inferred
Method: as §1

[3] = compound: COc1cc(-c2nn([C@H]3CC[C@H](N4CCN(C(C)=O)CC4)CC3)c3ncnc(N)c23)ccc1NC(=O)c1cc2ccccc2n1C [A-770041]; conditions: top dose 5.12 µM; top dose inferred
Method: as §1

[4] = compound: COc1cc(N2CCN(C)CC2)ccc1Nc1ncc2c(n1)N(C)c1ccccc1C(=O)N2C [XMD8-85]; conditions: top dose 8 µM; top dose inferred
Method: as §1

[5] = compound: Cc1cc(N2CCOCC2)cc2[nH]c(-c3c(NC[C@@H](O)c4cccc(Cl)c4)cc[nH]c3=O)nc12 [BMS-536924]
Method: as §1

[6] = compound: Cc1cccc(-c2[nH]c(C(C)(C)C)nc2-c2ccc3nccnc3c2)n1 [SB-525334]; conditions: top dose 20 µM; top dose inferred
Method: as §1

[7] = compound: NC(=O)c1ccc(N(C(N)=O)c2c(F)cccc2F)nc1-c1ccc(F)cc1F [VX-702]; conditions: top dose 2 µM; top dose inferred
Method: as §1

[8] = compound: O=C(c1cc(Cc2n[nH]c(=O)c3ccccc23)ccc1F)N1CCN(C(=O)C2CC2)CC1 [Olaparib]
Method: as §1

[9] = compound: O=C1NC(=O)c2c1c(-c1ccccc1Cl)cc1[nH]c3ccc(O)cc3c21 [Wee1 inhibitor 681640]; conditions: top dose 2 µM; top dose inferred
Method: as §1

[10] = compound: Cc1ccc(-n2nc(C(C)(C)C)cc2NC(=O)Nc2ccc(OCCN3CCOCC3)c3ccccc23)cc1 [BIRB 0796]; conditions: top dose 10 µM; top dose inferred
Method: as §1

[11] = top dose 4 µM, screen: GDSC drug entry 1091, top dose inferred
[12] = top dose 5.12 µM, screen: GDSC drug entry 62
[13] = top dose 5 µM, screen: GDSC drug entry 1017, top dose inferred
[14] = top dose 10 µM, screen: GDSC drug entry 1495

Row | Cell Line | AUC [1] | IC50 [1] | AUC [2] | IC50 [2] | AUC [3] | IC50 [3] | AUC [4] | IC50 [4] | AUC [5, 11] | IC50 [5, 11] | AUC [5, 12] | IC50 [5, 12] | AUC [6] | IC50 [6] | AUC [7] | IC50 [7] | AUC [8, 13] | IC50 [8, 13] | AUC [8, 14] | IC50 [8, 14] | AUC [9] | IC50 [9] | AUC [10] | IC50 [10]
1 | AM-38 (glioma, semi-adherent) | 0.33 | 0.333 µM | 0.986 | > 5.12 µM | 0.988 | > 5.12 µM | 0.988 | > 8 µM | 0.975 | > 4 µM | 0.974 | > 5.12 µM | 0.953 | > 20 µM | 0.953 | > 2 µM | 0.969 | > 5 µM | 0.976 | > 10 µM | 0.965 | > 2 µM | – | –
2 | BC-3 (B-cell lymphoma, suspension) | 0.424 | 0.636 µM | 0.976 | > 5.12 µM | 0.981 | > 5.12 µM | 0.898 | > 8 µM | – | – | 0.842 | 3.04 µM | 0.983 | > 20 µM | – | – | – | – | – | – | – | – | – | –
3 | CAL-148 (breast, suspension) | 0.439 | 0.693 µM | 0.976 | > 5.12 µM | 0.989 | > 5.12 µM | 0.96 | > 8 µM | – | – | 0.986 | > 5.12 µM | 0.947 | > 20 µM | – | – | – | – | – | – | – | – | – | –
4 | GOTO (neuroblastoma, adherent) | 0.657 | 2.91 µM | 0.929 | > 5.12 µM | 0.873 | > 5.12 µM | 0.909 | > 8 µM | 0.905 | > 4 µM | 0.843 | 4.38 µM | 0.653 | 3.53 µM | 0.982 | > 2 µM | 0.955 | > 5 µM | 0.794 | 5.35 µM | – | – | 0.882 | > 10 µM
5 | HA7-RCC (kidney, adherent) | 0.502 | 1.02 µM | 0.826 | 3.54 µM | 0.699 | 1.24 µM | 0.86 | 7.9 µM | 0.925 | > 4 µM | 0.819 | 3.31 µM | 0.965 | > 20 µM | 0.984 | > 2 µM | 0.984 | > 5 µM | 0.869 | > 10 µM | – | – | 0.958 | > 10 µM
6 | HCC1599 (breast, suspension) | 0.357 | 0.379 µM | 0.946 | > 5.12 µM | 0.969 | > 5.12 µM | 0.864 | > 8 µM | – | – | 0.966 | > 5.12 µM | 0.971 | > 20 µM | – | – | – | – | – | – | – | – | – | –
7 | HCC-33 (small cell lung carcinoma, adherent) | 0.453 | 0.743 µM | 0.982 | > 5.12 µM | 0.988 | > 5.12 µM | 0.981 | > 8 µM | – | – | 0.986 | > 5.12 µM | 0.9 | > 20 µM | – | – | – | – | – | – | – | – | – | –
8 | HD-MY-Z (Hodgkin lymphoma, adherent) | 0.364 | 0.419 µM | 0.897 | > 5.12 µM | 0.801 | 2.51 µM | 0.96 | > 8 µM | 0.93 | > 4 µM | 0.942 | > 5.12 µM | 0.901 | > 20 µM | 0.957 | > 2 µM | 0.907 | > 5 µM | 0.883 | > 10 µM | – | – | 0.962 | > 10 µM
9 | HEL (acute myeloid leukaemia, semi-adherent) | 0.51 | 1.06 µM | 0.937 | > 5.12 µM | 0.966 | > 5.12 µM | 0.88 | 5.91 µM | 0.956 | > 4 µM | 0.777 | 1.72 µM | 0.965 | > 20 µM | – | – | – | – | 0.983 | > 10 µM | – | – | – | –
10 | HL-60 (acute myeloid leukaemia, suspension) | 0.601 | 1.84 µM | 0.984 | > 5.12 µM | 0.875 | 4.17 µM | 0.847 | 5.02 µM | 0.956 | > 4 µM | 0.465 | 0.26 µM | 0.926 | > 20 µM | 0.956 | > 2 µM | – | – | – | – | 0.983 | > 2 µM | – | –
11 | KALS-1 (glioma, adherent) | 0.514 | 1.11 µM | 0.913 | > 5.12 µM | 0.738 | 2.01 µM | 0.82 | 6.99 µM | 0.973 | > 4 µM | 0.926 | > 5.12 µM | 0.945 | > 20 µM | – | – | – | – | 0.975 | > 10 µM | – | – | – | –
12 | KASUMI-1 (acute myeloid leukaemia, suspension) | 0.189 | 0.117 µM | 0.982 | > 5.12 µM | 0.982 | > 5.12 µM | 0.857 | 6.52 µM | 0.588 | 0.437 µM | 0.937 | > 5.12 µM | – | – | 0.932 | > 2 µM | 0.969 | > 5 µM | 0.983 | > 10 µM | – | – | – | –
13 | KMS-12-BM (myeloma, suspension) | 0.3 | 0.309 µM | 0.966 | > 5.12 µM | 0.983 | > 5.12 µM | 0.806 | 3.25 µM | – | – | 0.914 | > 5.12 µM | 0.983 | > 20 µM | 0.985 | > 2 µM | 0.99 | > 5 µM | – | – | – | – | – | –
14 | KP-N-YS (neuroblastoma, adherent) | 0.366 | 0.404 µM | 0.96 | > 5.12 µM | 0.782 | 2.47 µM | 0.915 | > 8 µM | – | – | 0.933 | > 5.12 µM | 0.897 | > 20 µM | – | – | – | – | – | – | – | – | – | –

IC50 is the fitted dose that halves viability relative to control wells, and lower means more sensitive; a fit beyond the top or the lowest dose is shown as a bound at that dose. For AUC the same curve is integrated over the 256-fold range of doses and scaled to a fraction; it is 1 without any effect and falls as sensitivity rises. Where the top dose is marked as inferred, it comes from the curve model; the source does not state it. For some of these results: Drugs with an entry number were screened twice under separate entries, and the two screens often disagree.
